# Measured values reported in US20220340685A1, “COMBINATION THERAPY WITH ENTPD2 AND CD73 ANTIBODIES” (Novartis AG, priority 2019, published 2022).
# Substitutions are numbered along the chain they refer to.
# T1: mouse ENTPD2 (Mus musculus, UniProt O55026)
# T1 construct: residues 29-462 of mouse or rat ENTPD2 (the extracellular domain); His6; mouse IgK signal peptide (N); made in house; host or cells: FreeStyle 293-F cells (transient)
# T1 sequence (O55026 29-462): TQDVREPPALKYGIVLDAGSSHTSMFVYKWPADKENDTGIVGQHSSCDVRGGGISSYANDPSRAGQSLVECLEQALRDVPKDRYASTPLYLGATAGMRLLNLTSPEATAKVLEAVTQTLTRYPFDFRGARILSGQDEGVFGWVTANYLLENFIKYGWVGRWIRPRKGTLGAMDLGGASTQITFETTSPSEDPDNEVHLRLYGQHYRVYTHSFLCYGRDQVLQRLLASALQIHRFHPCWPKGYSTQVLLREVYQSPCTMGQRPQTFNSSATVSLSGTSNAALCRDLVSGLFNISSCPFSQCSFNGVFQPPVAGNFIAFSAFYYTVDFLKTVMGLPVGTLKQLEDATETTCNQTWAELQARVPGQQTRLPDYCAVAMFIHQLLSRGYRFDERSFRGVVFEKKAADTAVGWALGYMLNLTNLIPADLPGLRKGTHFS
# T2: human ENTPD2 (Homo sapiens, UniProt Q9Y5L3)
# T2 construct: residues 29-462 of human or cyno ENTPD2; GP67 signal peptide (N); made in house; host or cells: High Five (Trichoplusia ni) insect cells, baculovirus
# T2 sequence (Q9Y5L3 29-462): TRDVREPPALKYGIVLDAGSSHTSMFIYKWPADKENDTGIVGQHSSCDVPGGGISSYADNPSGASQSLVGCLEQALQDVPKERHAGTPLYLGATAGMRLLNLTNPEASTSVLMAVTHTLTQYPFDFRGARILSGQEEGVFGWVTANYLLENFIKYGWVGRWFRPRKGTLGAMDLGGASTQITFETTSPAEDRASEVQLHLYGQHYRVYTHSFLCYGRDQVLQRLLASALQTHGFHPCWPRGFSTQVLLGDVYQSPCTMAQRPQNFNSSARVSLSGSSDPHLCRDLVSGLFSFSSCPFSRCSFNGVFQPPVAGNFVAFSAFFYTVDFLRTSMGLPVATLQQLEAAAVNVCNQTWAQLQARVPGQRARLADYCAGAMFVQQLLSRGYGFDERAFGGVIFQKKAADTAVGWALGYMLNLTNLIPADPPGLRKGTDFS
# T3: Human ENTPD1 (NP_001767) expressing NIH/3T3 cells (Homo sapiens, UniProt P49961)
# T3 construct: expressed in transfected cells; host or cells: NIH/3T3 (retroviral transduction, FACS-sorted)
# T3 sequence (P49961 1-510): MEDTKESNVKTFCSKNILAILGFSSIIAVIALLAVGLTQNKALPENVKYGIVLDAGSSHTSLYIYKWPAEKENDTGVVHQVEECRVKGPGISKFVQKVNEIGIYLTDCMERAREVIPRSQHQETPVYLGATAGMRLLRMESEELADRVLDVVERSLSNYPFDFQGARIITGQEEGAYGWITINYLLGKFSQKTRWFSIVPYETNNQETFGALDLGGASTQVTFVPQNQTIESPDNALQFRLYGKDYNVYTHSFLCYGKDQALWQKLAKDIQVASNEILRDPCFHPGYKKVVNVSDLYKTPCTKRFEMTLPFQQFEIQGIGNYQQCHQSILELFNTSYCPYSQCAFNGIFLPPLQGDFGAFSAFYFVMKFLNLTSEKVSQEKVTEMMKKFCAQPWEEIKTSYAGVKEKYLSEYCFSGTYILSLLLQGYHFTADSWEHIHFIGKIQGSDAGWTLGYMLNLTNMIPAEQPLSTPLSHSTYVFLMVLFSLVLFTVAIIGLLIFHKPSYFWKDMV
# B1: mAb4: humanized anti-human ENTPD2 antibody derived from mAb16; probably heavy chain SEQ ID NO: 48, light chain SEQ ID NO: 59 (antibody)
# heavy: QIQLQESGPGLVKPSQTLSLTCTVSGYSITSGYYWNWIRQHPGKGLEWIGYISYDADNNYNPSLKNRVTISRDTSKNQFSLKLSSVTAADTAVYYCAGGYYRYGLGSYRGSYYYVMDYWGQGTTVTVSSASTKGPSVFPLAPSSKSTSGGTAALGCLVKDYFPEPVTVSWNSGALTSGVHTFPAVLQSSGLYSLSSVVTVPSSSLGTQTYICNVNHKPSNTKVDKRV[left out - human IgG1 Fc]
# light: ETVLTQSPATLSVSPGERATISCKASQSVDYEGHSYMNWYQQKPGQAPRLLIYAASNLESGIPARFSGSGSGTDFTLTISSVEPEDAATYYCQQSNEDPPTFGGGTKLEIKRTVAAPSVFIFPPSDEQLKSGTASVVCLLNNFYPREAKVQWKVDNALQSGNSQESVTEQDSKDSTYSLSSTLTLSKADYEKHKVYACEVTHQGLSSPVTKSFNRGEC
# B2: mAb5: humanized anti-human ENTPD2 antibody derived from mAb16; probably heavy chain SEQ ID NO: 48, light chain SEQ ID NO: 66 (antibody)
# heavy: B1 heavy
# light: B1 light with E32D, H34N
# B3: ANTI-HUMAN ENTPD2 MAB4 (antibody)
# heavy: B1 heavy
# light: B1 light
# B4: ANTI-HUMAN ENTPD2 MAB5 (antibody)
# heavy: B1 heavy
# light: B1 light with E32D, H34N
# Experiments:
# [1] = system: cynomologus (cyno) ENTPD2; experiment: Biacore SPR kinetic affinity to cyno ENTPD2 ECD; format: binding, cynomolgus monkey; details: 25° C.; for Cyno ENTPD2 ka: association rate; for Cyno ENTPD2 kd: dissociation rate
# Experimental: (§1) Biacore Screening: Affinity was measured by determining the kinetic rate constants using surface plasmon resonance (SPR) on a Biacore T200 or T100 with the T200 sensitivity upgrade instrument (Biacore, GE Healthcare). Antibodies were captured on CM5 sensor chips (Biacore, GE Healthcare) prepared with a mouse anti-human IgG Fc antibody (ThermoFisher catalogue # 05-4200) amine coupled to the surface. […] ENTPD2 analytes were allowed to associate for 180 s and dissociate for up to 1800 s depending on the off-rate of the antibody at a flow rate of 30 μL/min. The running buffer was PBS pH 7.2 (prepared from a Corning 10X stock, cat# 46-013-CM) +0.05% Tween 20. Regeneration was accomplished with 30 s injections of 3 or 4 M MgCl2 to remove all the captured antibody and remaining complex from the surface, after which fresh antibody was captured. The raw data were analyzed using Biacore T200 Evaluation Software version 1.0 and fit to a 1:1 binding model, with all parameters set to fit globally except for RI, which was set to fit locally.
# mouse ENTPD2 = molecular target: T1, mouse ENTPD2; experiment: Antibody specificity: binding to mouse ENTPD2; details: Biacore SPR
# Experimental: ELISA screening on directly coated antigen: Maxisorp™ 384-well plates (Thermo Nunc) were coated with 2 μg/ml of recombinant ENTPD2 diluted in PBS. After blocking with 2% BSA (bovine serum albumin) in PBS for 1 hr at room temperature, washing plates 3× with TBST (0.05% Tween 20 in TBS, Sigma Cat# T9039), primary antibodies in TBST and 2% BSA were added in a serial dilution and incubated for 1 hr at room temperature. Plates were washed again and bound antibodies were detected by incubation with anti-hFc gamma conjugated to horseradish peroxidase (HRP; Jackson ImmunoResearch, Cat#115-035-098, diluted 1:5000 in 1× TBST+2% BSA) for 1 hr at room temperature followed by washing with TBST and afterwards addition of SureBlue Peroxidase substrate (KPL, #52-00-03) substrate. After 15 min, absorbance at 650 nm was recorded and analyzed in GraphPad Prism6.
# Biacore Screening: Affinity was measured by determining the kinetic rate constants using surface plasmon resonance (SPR) on a Biacore T200 or T100 with the T200 sensitivity upgrade instrument (Biacore, GE Healthcare). […] The raw data were analyzed using Biacore T200 Evaluation Software version 1.0 and fit to a 1:1 binding model, with all parameters set to fit globally except for RI, which was set to fit locally. […]
# human ENTPD2 = molecular target: T2, human ENTPD2; experiment: Biacore SPR kinetic affinity to human ENTPD2 ECD; format: binding; details: 25° C.; for Human ENTPD2 ka: association rate; for Human ENTPD2 kd: dissociation rate
# Experimental: as §1
# [2] = molecular target: T3, Human ENTPD1 (NP_001767) expressing NIH/3T3 cells; experiment: Cross reactivity: FACS binding to human ENTPD1 expressing NIH/3T3 cells; details: 50 nM antibody
# Experimental: (§2) FACS screening: Specific binding of candidate antibodies to endogenously expressed ENTPD2 was assessed by flow cytometry. Cells were rinsed thoroughly with 1× PBS and treated with Accutase (Millipore #SCR005) to lift from growth plates and resuspended at approximately 1×10^5 cells/90 μL in 1× FACS buffer (2% FBS +0.1% NaN3 in PBS). In a 96-well U-bottom plate, 10 μL of 10× antibody solution in FACS buffer was pre-seeded and 90 μL of cell suspension was added. Cell were incubated for 30 minutes at 4° C., washed 1× with cold PBS and resuspended in 100 μL of 1:500 secondary antibody 1× FACS buffer (Allophycocyanin conjugated F(ab′)2 goat anti-human IgG, Fcγ specific; Jackson Immunoresearch, Cat# 109-136-098). After additional incubation for 15 min at 4° C., cells were washed twice with PBS and resuspended in 100 μL of 1× FACS buffer with 4 μg/mL propidium iodide (Life Technologies, Cat# P3566). Geometric mean fluorescence intensity was calculated on live single cells using FlowJo software.
# (§3) Cross reactivity Human ENTPD1 (NP_001767) expressing NIH/3T3 cells were generated using a retroviral transduction approach. 72hrs post transduction, engineered cells were stained with the anti-Human CD39/ENTPD1 APC-conjugated Antibody (R&D systems, Minneapolis, Minn.) and live cells that expressed human ENTPD1 were separated from the rest of the population via fluorescence activated cell sorting. […]
# NIH/3T3 cells = experiment: Cross reactivity: FACS binding to parental NIH/3T3 control cells; details: 50 nM antibody
# Experimental: as §2, §3
# H520 cells = experiment: Cross reactivity: FACS binding to H520 cells (ENTPD3 and ENTPD8 expression); design: species or system human; details: 50 nM antibody
# Experimental: as §2
# H520 cells were identified as a cancer cell line with ENTPD3 (Ct 25) and ENTPD8 (Ct 26) expression by Taqman and were used for selectivity screening.
molecule,measurement,setting,value
B1,Cyno ENTPD2 ka,[1],140000 M⁻¹ s⁻¹
same,Cyno ENTPD2 kd,[1],0.0057 s⁻¹
same,Mouse ENTPD2 BIACore KD (nM),mouse ENTPD2,No binding
same,Human ENTPD2 ka,human ENTPD2,300000 M⁻¹ s⁻¹
same,Human ENTPD2 kd,human ENTPD2,0.00022 s⁻¹
B2,Cyno ENTPD2 ka,[1],290000 M⁻¹ s⁻¹
same,Cyno ENTPD2 kd,[1],0.003 s⁻¹
same,Mouse ENTPD2 BIACore KD (nM),mouse ENTPD2,No binding
same,Human ENTPD2 ka,human ENTPD2,270000 M⁻¹ s⁻¹
same,Human ENTPD2 kd,human ENTPD2,0.00016 s⁻¹
B3,"Apparent FACS binding at 50 nM, NIH/3T3 - ENTPD1",[2],No binding
same,"Apparent FACS binding at 50 nM, NIH/3T3 cells",NIH/3T3 cells,No binding
same,"Apparent FACS binding at 50 nM, H520 Cells",H520 cells,No binding
B4,"Apparent FACS binding at 50 nM, NIH/3T3 - ENTPD1",[2],No binding
same,"Apparent FACS binding at 50 nM, NIH/3T3 cells",NIH/3T3 cells,No binding
same,"Apparent FACS binding at 50 nM, H520 Cells",H520 cells,No binding
